# PubChem BioAssay AID1240 (Sanford-Burnham Center for Chemical Genomics, 2008)
# Out of some 50,000 compounds screened, about 800 (1.6%) showed an effect of 50% or more. The list shows a part of the results.
# Target: Bcl-2-like protein 10 (Homo sapiens) (UniProt Q9HD36)
# Experiment: TR3 peptide-Bcl-B binding displacers, biochemical primary FP assay, phenotype converters (AID 1240);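 further: 0% = Bcl-B with tracer peptide and DMSO and 100% = tracer peptide lacking Bcl-B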
# Conditions: GST-Bcl-B / FITC-TR3 peptide fluorescence polarization; stronger effect = higher value; compound at 3.75 mg/L
# Sequence of UniProt Q9HD36 (Q9HD36 whole entry, looked up): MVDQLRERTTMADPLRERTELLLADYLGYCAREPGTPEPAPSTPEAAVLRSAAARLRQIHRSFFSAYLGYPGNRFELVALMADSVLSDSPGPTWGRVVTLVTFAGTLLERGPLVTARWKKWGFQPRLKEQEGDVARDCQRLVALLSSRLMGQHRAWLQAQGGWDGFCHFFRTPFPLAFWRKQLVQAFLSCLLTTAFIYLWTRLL
row,SMILES,displacement [%]
1,COc1ccc(/C(C)=N/N=C2/NC(=O)C(CC(=O)Nc3cc(Cl)ccc3Cl)S2)cc1 (configuration not stated),9.5
2,COc1ccc(Cc2c(O)nc(SC)[nH]c2=O)cc1,6.9
3,COc1ccc([N+](=O)[O-])cc1CSc1nc2ccc(N3C(=O)c4ccccc4C3=O)cc2s1,-33.2
4,COc1cccc(Nc2nc(-c3ccc(S(=O)(=O)N4CCOCC4)cc3)cs2)c1,10.4
5,CC1=C(C(=O)OC(C)C)C(c2ccc(C)s2)NC(=O)N1C (configuration not stated),-15.1
6,CCOC(=O)c1c(NC(=O)/C=C/c2ccc(OC)c(Br)c2)sc(C(C)=O)c1C,-13.9
7,Cc1ccc(C(=O)Nc2ccc(C(=O)O)cc2)o1,-1.2
8,Cc1ccc2oc(C(=O)Nc3cccnc3)c(C)c2c1,-9.8
9,CCOC(=O)C1=C(O)/C(=C/c2ccc(N(C)C)cc2)SC1=Nc1cccc(Cl)c1,-53.7
10,C=CCc1ccccc1OCCn1cc(/C=C2/SC(=S)N(CC)C2=O)c2ccccc21,11.6
11,Nc1ccc(C(=O)N2N=C3CCCCC3C2(O)C(F)(F)F)cc1 (configuration not stated),-1
12,O=c1oc(-c2ccccc2Cl)nc2sc3c(c12)CCC3,-1.7
13,COc1cccc(/C=N/NS(C)(=O)=O)c1,7.5
14,CCCCCCCCNS(=O)(=O)c1ccc([N+](=O)[O-])cc1,2.7
15,COC(=O)/C(=C/C(C#N)=C/N(C)C)C(C)=O,-1.2
16,CCCOc1cccc(C(=O)Nc2sc(C)cc2C(=O)OC)c1,36.3
17,O=C(Cc1ccccc1[N+](=O)[O-])NCC1CCCO1 (configuration not stated),-4.4
18,Cc1ccc(C)c(S(=O)(=O)n2ccnc2C(C)C)c1,14.5
19,O=C(/C=C/c1ccc(/C=C/C(=O)c2cccc(N3C(=O)CCC3=O)c2)cc1)c1cccc(N2C(=O)CCC2=O)c1,2.2
20,COc1ccc(NC(=O)C(=O)NCCN2CCN(C(=O)c3ccccc3Cl)CC2)cc1,9
21,O=C1OC(c2ccccc2)=C/C1=C/c1cccs1,8.8
22,CC1=NC2(CCCc3c2no[n+]3[O-])N(O)C1(C)C (configuration not stated),6.9
23,CN1C(=O)CSC1=Nc1ccc(Br)cc1,-8.5

row,SMILES,displacement [%]
1,COCCOC(=O)C1=C(C)NC(=O)NC1c1cccs1 (configuration not stated),-0.7
2,CCc1ccc(-c2cc(C(=O)NC3CC3)c3ccccc3n2)cc1,11.5
3,COc1cccc(C(=O)N2CCN(Cc3ccc(F)cc3)CC2)c1OC,14
4,O=C1CC(c2ccccc2)CC2=C1C(c1cccc(OCc3ccccc3)c1)Nc1ccccc1N2 (configuration not stated),-3
5,Cc1cc(NS(=O)(=O)c2ccc(N/C=C/C(=O)c3cccs3)cc2)nc(C)n1,2.1
6,Cc1cccc(N(CC(=O)NCc2ccco2)S(=O)(=O)c2ccccc2)c1,-6.4
7,O=C(NCCOc1ccccc1F)c1cccc2ccccc12,12.3
8,O=C(O)CCCCCN1C(=O)C2C3c4ccccc4C(c4ccccc43)C2C1=O (configuration not stated),-3.1
9,CCOC(=O)CSc1nnc(-c2ccncc2)n1-c1ccccc1,-13.2
10,O=C(c1ccc(S(=O)(=O)N2CCCC2)cc1)N1CCN(C/C=C/c2ccccc2)CC1,-5.8
11,CCOC(=O)c1c(NC(=O)c2cc3n(n2)C(C(F)(F)F)CC(c2ccco2)N3)sc(C)c1C (configuration not stated),0.1
12,Cc1ccc(NC(CC(=O)c2ccccc2)c2ccc(F)cc2)cc1 (configuration not stated),-10.7
13,COc1ccc(C2CC(=O)C3=C(C2)NC(C)=C(C#N)C3c2ccc(N(C)C)cc2)cc1 (configuration not stated),11.8
14,CCOc1ccc(S(=O)(=O)N(CC(=O)NCc2ccc(OC)cc2)c2ccc(C)cc2)cc1,-1.6
15,CCOC(=O)c1c(NC(=O)c2ccc(S(=O)(=O)N3CCCCCC3)cc2)sc(C)c1C,31.1
16,Cc1ccc(S(=O)(=O)NC(=O)Nc2cc(C)ccc2F)cc1,4.8
17,COc1cc(C(=O)N2c3ccccc3-c3c(ssc3=S)C2(C)C)cc(OC)c1OC,16.7
18,Fc1ccc(NC(=S)Nc2ccc(Br)cc2)cc1,-1.3
19,O=C(Nc1cc2c(s1)CCCC2)c1ccccc1,11.4
20,Cc1ccc(-c2ccc(/C=N/n3nnnc3N)o2)cc1Cl,-12.3
21,O=C1NN(c2ccccc2)C(=O)/C1=C\c1cccs1,-10.7
22,COc1ccc(C2=NN(C(=O)CCC(=O)O)C(c3ccccc3F)C2)cc1 (configuration not stated),12.3
23,COCCNC(=O)c1ccc(CN(c2cccc(Cl)c2)S(=O)(=O)c2ccc(C)cc2)cc1,-4

row,SMILES,displacement [%]
1,CCOc1ccc(C(=O)Nc2cccc(OC)c2)cc1Cl,-0.1
2,O=C(O)CCCCCCCCCCC1COCCO1 (configuration not stated),-3.1
3,Cc1cc(/C=N/NC(N)=S)c(C)n1-c1ccc(F)cc1,-17.6
4,Oc1ccccc1CNC12CN3CN(CN(C3)C1)C2,-5.2
5,CCCc1cc(=O)oc2cc(OCc3c(F)cccc3Cl)ccc12,15.5
6,O=C1C(Cc2ccccc2)NC(=S)N1c1ccccc1 (configuration not stated),-7.7
7,CCOc1cc(C(=O)Nc2ncccn2)cc(OCC)c1OCC,2.2
8,CCOc1cc(C(=S)N2CCCCC2)cc(I)c1O,0.1
9,CCN(CC)C(=O)/C(=C/c1cccc([N+](=O)[O-])c1)NC(=O)c1ccc(C)cc1,26.6
10,COc1ccc(S(=O)(=O)Nc2ccc(S(=O)(=O)NC(C)=O)cc2)cc1,-4
11,COc1cc(C2CC(=O)Nc3c2ccc2ccccc32)ccc1O (configuration not stated),-13.6
12,CC(C)(C)c1ccc(OCC(=O)NCc2ccccn2)cc1,-15.1
13,CCN(CC)CCNC(=O)C1(c2ccccc2)CCOCC1,-1.5
14,NC(=O)c1ccc(NC(=O)/C=C/c2ccccc2)cc1,-5.5
15,Cc1ccc(Cl)cc1NC(=O)c1c(F)c(F)c(F)c(F)c1F,6.5
16,O=C(CC(c1ccco1)S(=O)(=O)c1ccccc1)c1ccccc1 (configuration not stated),-6.9
17,O=C(Nc1ccc(Br)c(Br)c1)c1ncn[nH]1,-4.7
18,O=C(c1ccc(I)cc1)N1CCN(c2ccccc2)CC1,-9.9
19,Cc1ccccc1NC(=O)CSc1ccc(Cl)cc1Cl,4.2
20,CN(C)c1cccc(NC(=O)C(c2ccccc2)c2ccccc2)c1,-10.3
21,COc1ccccc1C1/C(=C(\O)c2ccc(Cl)cc2)C(=O)C(=O)N1c1cccnc1 (configuration not stated),-1.5
22,CCOC(=O)c1c(NC(=O)/C=C/c2cccs2)sc2c1CCCC2,-3.1
23,O=C(NCc1ccncc1)C(=O)Nc1ccccc1Cl,-5.1

row,SMILES,displacement [%]
1,Cc1nc2cc(NCc3ccc(N(C)C)cc3)ccc2n1Cc1ccccc1,10.4
2,NC(=O)SCC(=O)Nc1ccccc1Cl,-2.4
3,O=C1N=C(N2CCOCC2)S/C1=C\c1c(Cl)cccc1Cl,-0.6
4,CC1(C)CC(=O)C=C(NCCN2CCN(C(=S)Nc3ccccc3)CC2)C1,-6
5,COc1ccccc1OCCCCCCc1c(C)n[nH]c1C,12.2
6,CC1=C(C(=O)OCCOc2ccccc2)C(c2ccc(C)cc2)C2=C(CCCC2=O)N1 (configuration not stated),2.6
7,O=C(COc1ccccc1Cl)N/N=C/c1ccc(-c2ccccc2[N+](=O)[O-])o1,2.6
8,COc1ccc(C2/C(=C(\O)c3ccc(Cl)cc3)C(=O)C(=O)N2c2cccnc2)c(OC)c1 (configuration not stated),-7.1
9,CCn1c(-c2cccc(Cl)c2)n[nH]c1=S,10.4
10,Cc1ccc(C)c(-c2cc(C(=O)NN)c3ccccc3n2)c1,-9
11,Cc1ccc(S(=O)(=O)N(CCc2ccccc2)CC(=O)Nc2ccc(Cl)cc2Cl)cc1,13.2
12,COc1cccc(-c2nnc(-c3ccncc3)o2)c1,6.6
13,COc1ccc(OC)c(C(C)NC=O)c1 (configuration not stated),2.3
14,Cc1ccc(-c2nc3ccccc3s2)cc1NC(=O)c1cccc(I)c1,1.2
15,COc1cc(NS(=O)(=O)c2cc(Cl)ccc2Cl)c(OC)cc1Cl,-2
16,O=C(Nc1ccc(NC(=O)c2ccc(Cl)cc2Cl)cc1)c1ccc(Cl)c(Cl)c1,9.3
17,COc1cc2c(cc1OC)C(C)N(C(=O)C1COc3ccccc3O1)CC2 (configuration not stated),2.3
18,CCOc1ccc(S(=O)(=O)N2CCCCCC2)c2ccccc12,1
19,O=c1c(=N/Nc2ccccc2)/c(=N\Nc2ccccc2)c2ccccc12,5
20,COc1ccc(NC(=O)CN(c2ccc(Cl)cc2)S(C)(=O)=O)cc1OC,17
21,Cc1cc(/C=N/NC(N)=O)c(C)n1-c1ccc(F)cc1,5.7
22,COc1cc(C(=O)Nc2ccc([N+](=O)[O-])cn2)cc(OC)c1OC,-7.9
23,Cn1ccnc1SCC(=O)c1ccc(Br)cc1,13.6

row,SMILES,displacement [%]
1,COc1ccc(-c2cc(C(=O)Nc3cccc(Br)c3)c3ccccc3n2)c(OC)c1,-5.9
2,CCCCOC(C)n1cc(Cl)c(=O)[nH]c1=O (configuration not stated),10.4
3,COc1ccc(/C(N)=N/OC(=O)c2cccc(F)c2)cc1,-1.8
4,COc1ccc(C2CC(C(F)(F)F)n3ncc(C(=O)N4CCN(Cc5ccccc5)CC4)c3N2)cc1OC (configuration not stated),-2.8
5,Cc1cc(Cc2ccc(NC(=O)Nc3ccccc3)c(C)c2)ccc1NC(=O)Nc1ccccc1,5.7
6,CC(=O)N(/C=C1\Sc2ccccc2C1=O)c1ccc(C)cc1,2.4
7,O=C1N=c2ccccc2=C1N=Nc1nc(O)c(-c2c(O)[nH]c3ccccc23)s1,22.8
8,CCc1ccccc1NC(=O)c1cc2ccccc2o1,-2.8
9,Cc1ccc(N(CC(=O)N2CCCC2)S(C)(=O)=O)cc1Cl,3.9
10,CCOC(=O)c1c(NC(=O)c2cccs2)sc(C(=O)Nc2cc(C(F)(F)F)ccc2Cl)c1C,12.2
11,O=C(CSc1nc2ccccc2[nH]1)N1CCCCC1,4.4
12,CN(C)C=Nc1ncnc2c(C#N)c3n(c12)CCCCC3,1
13,O=C1C2CCCC2=NN1c1ccccc1 (configuration not stated),2.5
14,Cc1ccc(-n2cnc(N)c2C(=O)c2ccc([N+](=O)[O-])cc2)cc1,10.9
15,O=[N+]([O-])c1ccc(N2CCCC2)cc1N1CCCCC1,17.8
16,COC(=O)CNC(=O)c1ccccc1F,9.1
17,CCOc1cccc(N2C(=O)/C(=C/c3ccc(N(CC)CC)cc3OC)C(=O)NC2=S)c1,-60.4
18,Cc1onc(-c2c(Cl)cccc2Cl)c1C(=O)N1CCN(Cc2ccccc2)CC1,0.2
19,O=C1/C(=C\c2ccc(O)c(O)c2)SC(=S)N1c1cccc(C(F)(F)F)c1,9.3
20,COc1ccc(C2C(C#N)=C(N)Oc3c2sc2ccccc32)c(OC)c1 (configuration not stated),-16
